Assay results published in publication PMC4336329 (PLoS ONE, 2015).
Screen size: about 310,000 compounds; about 14,000 (4.5%) showed an effect of 50% or more. Effects have a minus sign here. The list shows a part of the results.

Target: human ether-à-go-go-related gene (hERG) potassium channel (human, UniProt Q12809)
Assay: primary screen, population patch clamp on CHO cells stably expressing hERG
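Note: peak tail current of the secondary pulse compared with the same well before compound.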

Sequence of human ether-à-go-go-related gene (hERG) potassium channel (Q12809 whole entry, looked up): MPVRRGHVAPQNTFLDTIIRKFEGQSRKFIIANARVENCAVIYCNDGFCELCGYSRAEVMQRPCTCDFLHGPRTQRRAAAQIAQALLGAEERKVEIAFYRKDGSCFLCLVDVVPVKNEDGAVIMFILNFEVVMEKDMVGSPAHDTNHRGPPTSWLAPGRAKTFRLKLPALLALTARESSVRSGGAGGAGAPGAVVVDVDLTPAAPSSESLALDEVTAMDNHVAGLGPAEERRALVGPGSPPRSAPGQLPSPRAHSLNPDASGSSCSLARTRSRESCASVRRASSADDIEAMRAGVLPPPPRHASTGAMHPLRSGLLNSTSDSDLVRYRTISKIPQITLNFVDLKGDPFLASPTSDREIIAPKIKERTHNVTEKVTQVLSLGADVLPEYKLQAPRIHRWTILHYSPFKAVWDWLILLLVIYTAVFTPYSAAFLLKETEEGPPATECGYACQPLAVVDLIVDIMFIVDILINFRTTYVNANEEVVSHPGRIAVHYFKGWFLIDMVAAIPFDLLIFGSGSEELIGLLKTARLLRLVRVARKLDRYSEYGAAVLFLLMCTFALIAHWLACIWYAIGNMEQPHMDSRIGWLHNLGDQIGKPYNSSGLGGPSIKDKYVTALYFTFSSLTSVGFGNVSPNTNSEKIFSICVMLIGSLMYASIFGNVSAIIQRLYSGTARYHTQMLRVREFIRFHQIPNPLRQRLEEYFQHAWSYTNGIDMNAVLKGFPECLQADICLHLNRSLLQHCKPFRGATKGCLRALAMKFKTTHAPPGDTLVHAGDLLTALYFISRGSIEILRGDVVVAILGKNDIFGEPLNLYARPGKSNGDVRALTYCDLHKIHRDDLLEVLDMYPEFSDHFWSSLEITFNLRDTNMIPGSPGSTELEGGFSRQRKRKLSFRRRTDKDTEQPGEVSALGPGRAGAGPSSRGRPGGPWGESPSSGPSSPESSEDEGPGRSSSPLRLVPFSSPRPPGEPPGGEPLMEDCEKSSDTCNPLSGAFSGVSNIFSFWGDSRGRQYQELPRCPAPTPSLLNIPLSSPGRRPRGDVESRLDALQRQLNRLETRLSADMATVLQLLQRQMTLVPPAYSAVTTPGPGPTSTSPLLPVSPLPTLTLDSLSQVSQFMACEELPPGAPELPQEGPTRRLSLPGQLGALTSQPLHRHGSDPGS

| SMILES | hERG current change (%, negative = inhibition) at 10uM [%] |
| --- | --- |
| COCCNc1nnc(SCC(=O)c2ccc3c(c2)OCO3)s1 | -9.11 |
| Cc1cc(C)cc(NC(=O)COC(=O)c2n[nH]c3ccccc23)c1 | 23.4 |
| NC(=O)C1Cc2ccccc2CN1S(=O)(=O)c1cccs1 (stereo not drawn) | -3.3 |
| CCC(C)(C)NC(=O)CN(CC1CCCO1)C(=O)CNS(=O)(=O)c1ccccc1 (stereo not drawn) | -9.99 |
| O=C(NCc1ccc2c(c1)OCO2)C(=O)NCC(c1ccco1)N1CCN(c2ccccc2)CC1 (stereo not drawn) | 16 |
| COc1ccc(NC(=O)CSc2nc3ccccc3nc2N2CCCC2)c(OC)c1 | 24.1 |
| COc1ccc(NC(=O)N2CCC(C(=O)c3ccc4c(c3)OCCO4)CC2)cc1 | 2.64 |
| COc1ccc(N2CCN(C(c3cc4cc(C)ccc4[nH]c3=O)c3nnnn3Cc3ccccc3)CC2)cc1 (stereo not drawn) | -8.91 |
| O=C(Cc1ccc(Cl)cc1Cl)OCC(=O)c1ccc[nH]1 | 11.9 |
| CCCc1ccc2oc(C(=O)N3CCN(CC(=O)NC(C)C)CC3)c(C)c2c1 | -26.3 |
| Cc1[nH]c(=O)c(C(=O)/C=C/c2ccccc2)c2c1CCCC2 | -8.03 |
| COc1cc(OC)cc(C(=O)Nc2ccc3c(c2)COC3=O)c1 | -4.75 |
| O=C(c1ccc(F)cc1)N1CCC(C(=O)N(Cc2ccccc2)c2ccccc2)CC1 | -16.6 |
| Cc1ccc(C(=O)CS(C)(=O)=O)cc1 | 12 |
| CCCc1cc(=O)[nH]c(SCC(=O)c2cc(C)n(-c3cc(C)on3)c2C)n1 | -6.65 |
| Cc1cc(N2CCN(C)CC2)nc2ccc(NC(=O)c3cccnc3Cl)cc12 | -2.54 |
| C=CCSc1nnc2c(n1)OC(C)=Nc1ccc(Br)cc1-2 | 18.7 |
| N/C(=N\OC(=O)c1cccs1)c1cccc(Br)c1 | 10.2 |
| CC(=O)OCCN(C)c1cc(SC(C)C)c2nonc2c1[N+](=O)[O-] | -30.4 |

| SMILES | hERG current change (%, negative = inhibition) at 10uM [%] |
| --- | --- |
| COc1ccccc1OC(C)C(=O)Nc1ccccc1C(=O)NCC1CCCO1 (stereo not drawn) | 7.03 |
| O=C(Cc1c(O)c2ccccc2[nH]c1=O)NCc1ccccc1 | 1.03 |
| CC12CCC(=O)N1C(C(=O)Nc1ccc(S(=O)(=O)N3CCCCC3)cc1)CS2 (stereo not drawn) | -5.09 |
| COc1ccc(C(=O)NC(=S)N2C[C@H]3C[C@H](C2)c2cccc(=O)n2C3)cc1 | 4.04 |
| COc1ccc([C@@H]2C[C@H](c3ccccc3)Oc3cc(OC)c(OC)c(OC)c32)cc1 | 21.4 |
| O=C(N/N=C/c1cccc([N+](=O)[O-])c1)C1CC(=O)N(c2ccc(F)cc2)C1 (stereo not drawn) | -65.8 |
| Cc1noc(C)c1COC(=O)CCOc1ccccc1 | -8.56 |
| Cc1ccc(/C(N)=N/OC(=O)Cc2cccs2)cc1 | 1.93 |
| Cc1cc(OCC(=O)NCCc2cccc(F)c2)c2c(C)cc(=O)oc2c1 | -2.4 |
| O=C(CC1CCCC1)NNC(=O)c1ccc(Br)cc1 | 2.16 |
| CCOC(=O)C1=C(C)NC2=C(C(=O)c3ccccc32)C1c1ccc([N+](=O)[O-])o1 (stereo not drawn) | -4.77 |
| C=CCSC1=N/C(=C/c2ccsc2)C(=O)N1c1ccccc1 | 13.2 |
| CCN(CC)S(=O)(=O)c1cccc(-c2csc(C)n2)c1 | -1.57 |
| COc1ccc(C2=NN(C(=O)CSc3nnc(C)c(=O)n3N)C(c3ccco3)C2)cc1 (stereo not drawn) | -42.8 |
| CCCC1CCc2c(sc(N)c2C(N)=O)C1 (stereo not drawn) | -8.27 |
| O=C(CN1C(=O)c2ccccc2C1=O)Nc1cccc(S(=O)(=O)Nc2ccccc2Cl)c1 | 19.9 |
| O=C(O)c1cc(-c2ccc3c(c2)OCO3)nc2ccc(Cl)cc12 | 21.2 |
| O=C(/C=C/c1ccc(Cl)c(Cl)c1)n1cccn1 | 2.98 |
| Cc1ccc(/C=N\NC(=O)c2cncc(Br)c2)o1 | 5.25 |

| SMILES | hERG current change (%, negative = inhibition) at 10uM [%] |
| --- | --- |
| CCOC(=O)c1cnn(-c2nc(OC)cc(OC)n2)c1C(F)(F)F | -6.9 |
| Cc1cc(NCCCn2ccnc2)n2nc(C)c(-c3ccc(Cl)cc3)c2n1 | -71.8 |
| CCN(CC)S(=O)(=O)c1cccc(C(=O)OCC(=O)c2ccc3c(c2)OCCO3)c1 | 12.4 |
| O=C(CCCc1nc2ccccc2s1)Nc1ccccc1 | 5.03 |
| Cc1ccc(S(=O)(=O)N2CCOCC2)cc1C(=O)NCc1cn2ccsc2n1 | 12.1 |
| CN1CCN(C(=O)c2ccc(Cn3cc(Cl)cn3)o2)CC1.Cl | 18.8 |
| Cc1ccsc1C(=O)NCc1ccc(F)cc1 | 2.13 |
| Cc1cc(OCC(=O)NCC(C)C)cc(C)c1Br | 12 |
| Cc1cccc(Nc2cc(=O)[nH]c(=O)[nH]2)c1 | 8.57 |
| CCOC(=O)C1=C(C)N(CCCC(=O)O)C(=O)NC1c1cccc(OC)c1 (stereo not drawn) | -3.02 |
| Cc1ccc(NC(=O)Cn2c(-c3ccc(F)cc3)cnc2SCC(=O)Nc2c(C)cccc2C)cc1 | 16 |
| COc1ccccc1-c1c(C)nn2c(N3CCOCC3)cc(C)nc12 | 2.71 |
| CC(C)Oc1ccc2c3c(c(=O)oc2c1)CCC3 | -14.2 |
| CCCCn1c(SCC(=O)N2CC(C)CC(C)C2)nc2cc(S(N)(=O)=O)ccc21 (stereo not drawn) | 2.81 |
| CCn1c(-c2ccc(OC)c(OC)c2)n[nH]c1=S | 11.1 |
| CC(C)C[C@H](NC(=O)c1nc[nH]c1C(=O)NCC(=O)OCc1ccccc1)C(=O)OC(C)(C)C | -15.5 |
| O=C1NC2NC(=O)N(C(Cc3ccccc3)C(=O)O)C2N1 (stereo not drawn) | -2.89 |
| O/N=C(/c1ccccc1)c1cc2cc(Br)cc(Br)c2o1 | 15.8 |
| CCCc1cnc(N2CCN(C(=O)c3c(-c4ccccc4)noc3C)CC2)nc1 | -24.5 |
